# The supplement of paper PMC8728848
# The list shows a part of the results.
# What was measured:
# Assay in all cases: glycan array binding signal (z-score within array); higher = stronger binding
# Details in all cases: glycan notation: IUPAC condensed, linker removed
# GlcNAc(b1-3)Man = target: GlcNAc(b1-3)Man
# Procedure, shortened: (§1)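 Negative Z-scores can be read as non-binding. The Z-score is calculated within each array and then averaged across arrays of one protein sequence at different concentrations or buffers and across linkers. Arrays, 3228 in all, were curated from the Consortium for Functional Glycomics database and kept only where the protein sequence was available.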
# [1] = target: GlcNAc(b1-3)[GlcNAc(b1-4)][GlcNAc(b1-6)]GlcNAc
# Procedure, shortened: as §1
# [2] = target: GlcNAc(b1-3)[GlcNAc(b1-6)]Gal(b1-4)GlcNAc
# Procedure, shortened: as §1
# [3] = target: GlcNAc(b1-3)[GlcNAc(b1-6)]GalNAc
# Procedure, shortened: as §1
# [4] = target: GlcNAc(b1-4)Gal(b1-4)GlcNAc
# Procedure, shortened: as §1
# GlcNAc(b1-4)GlcNAc = target: GlcNAc(b1-4)GlcNAc
# Procedure, shortened: as §1
# [5] = target: GlcNAc(b1-4)GlcNAc(b1-4)GlcNAc
# Procedure, shortened: as §1
# [6] = target: GlcNAc(b1-4)GlcNAc(b1-4)GlcNAc(b1-4)GlcNAc(b1-4)GlcNAc
# Procedure, shortened: as §1
# [7] = target: GlcNAc(b1-4)GlcNAc(b1-4)GlcNAc(b1-4)GlcNAc(b1-4)GlcNAc(b1-4)GlcNAc
# Procedure, shortened: as §1
# [8] = target: GlcNAc(b1-4)[GlcNAc(b1-6)]GalNAc
# Procedure, shortened: as §1
# [9] = target: GlcNAc(b1-6)Gal(b1-4)GlcNAc
# Procedure, shortened: as §1
# GlcNAc(b1-6)GalNAc = target: GlcNAc(b1-6)GalNAc
# Procedure, shortened: as §1
# [10] = target: GlcNAc6S(b1-3)Gal(b1-4)GlcNAc
# Procedure, shortened: as §1
# Kdn(a2-3)Gal(b1-3)GalNAc = target: Kdn(a2-3)Gal(b1-3)GalNAc
# Procedure, shortened: as §1
# Kdn(a2-3)Gal(b1-3)GlcNAc = target: Kdn(a2-3)Gal(b1-3)GlcNAc
# Procedure, shortened: as §1
# Kdn(a2-3)Gal(b1-4)Glc = target: Kdn(a2-3)Gal(b1-4)Glc
# Procedure, shortened: as §1
# Kdn(a2-3)Gal(b1-4)GlcNAc = target: Kdn(a2-3)Gal(b1-4)GlcNAc
# Procedure, shortened: as §1
# [11] = target: Kdn(a2-3)Gal(b1-4)[Fuc(a1-3)]GlcNAc
# Procedure, shortened: as §1
# Kdn(a2-6)Gal(b1-4)GlcNAc = target: Kdn(a2-6)Gal(b1-4)GlcNAc
# Procedure, shortened: as §1
# [12] = target: Man(a1-2)Man(a1-2)Man(a1-3)Man
# Procedure, shortened: as §1
# [13] = target: Man(a1-2)Man(a1-2)Man(a1-6)[Man(a1-3)]Man
# Procedure, shortened: as §1
# Man(a1-2)Man(a1-3)Man = target: Man(a1-2)Man(a1-3)Man
# Procedure, shortened: as §1
# [14] = target: Man(a1-2)Man(a1-3)[Man(a1-2)Man(a1-6)]Man
# Procedure, shortened: as §1
# [15] = target: Man(a1-2)Man(a1-3)[Man(a1-2)Man(a1-6)]Man(a1-6)[Man(a1-2)Man(a1-2)Man(a1-3)]Man
# Procedure, shortened: as §1
# [16] = target: Man(a1-2)Man(a1-3)[Man(a1-2)Man(a1-6)]Man(a1-6)[Man(a1-2)Man(a1-2)Man(a1-3)]Man(b1-4)GlcNAc(b1-4)GlcNAc
# Procedure, shortened: as §1
# [17] = target: Man(a1-2)Man(a1-3)[Man(a1-6)]Man(a1-6)[Man(a1-2)Man(a1-3)]Man(b1-4)GlcNAc(b1-4)GlcNAc
# Procedure, shortened: as §1
# [18] = target: Man(a1-2)Man(a1-6)[Man(a1-3)]Man(a1-6)[Man(a1-2)Man(a1-2)Man(a1-3)]Man
# Procedure, shortened: as §1
# [19] = target: Man(a1-2)Man(a1-6)[Man(a1-3)]Man(a1-6)[Man(a1-2)Man(a1-2)Man(a1-3)]Man(b1-4)GlcNAc(b1-4)GlcNAc
# Procedure, shortened: as §1
# Man(a1-3)[Man(a1-6)]Man = target: Man(a1-3)[Man(a1-6)]Man
# Procedure, shortened: as §1
# [20] = target: Man(a1-3)[Man(a1-6)]Man(a1-6)[Man(a1-2)Man(a1-3)]Man(b1-4)GlcNAc(b1-4)GlcNAc
# Procedure, shortened: as §1
# [21] = target: Man(a1-3)[Man(a1-6)]Man(a1-6)[Man(a1-3)]Man
# Procedure, shortened: as §1
# [22] = target: Man(a1-3)[Man(a1-6)]Man(a1-6)[Man(a1-3)]Man(b1-4)GlcNAc(b1-4)GlcNAc
# Procedure, shortened: as §1
# [23] = target: Man(a1-3)[Man(a1-6)]Man(b1-4)GlcNAc(b1-4)GlcNAc
# Procedure, shortened: as §1
# [24] = target: Man(a1-3)[Man(a1-6)]Man(b1-4)GlcNAc(b1-4)[Fuc(a1-6)]GlcNAc
# Procedure, shortened: as §1
# Man(a1-6)Man = target: Man(a1-6)Man
# Procedure, shortened: as §1
# Man(b1-4)GlcNAc = target: Man(b1-4)GlcNAc
# Procedure, shortened: as §1
# MurNAc(b1-4)GlcNAc = target: MurNAc(b1-4)GlcNAc
# Procedure, shortened: as §1
# Neu5Ac(a2-3)Gal = target: Neu5Ac(a2-3)Gal
# Procedure, shortened: as §1
binder,measurement,setting,value
B1257 (Bifidobacterium sp) (protein) MKKSIRLVAAIAALAMTAGISACGSSTNGNQAKSDVTAQDVETALTDTSKNVELTVWAYSAKQMEPTVKAFEKKYPHIKINFVNTGAAGDHFTKFQNVVQAQKDIPDVVQMGANKFQQFAVSGALLNFANDSIEKAWSKLYTKTAWAQVHYAGGLYGAPQDATPLANYVRKDILDEHNLQVPESWEDIYNEGIKLHKEDSNKYMGILGSDISFFTNLYRSVGARLWKVNSVDDVELTMNSGKAKEFTEFLQKCLKDGVLEGGTVFTDEFNRSINDGRYATFINENWMGNTYKEQNPSLKGKMVVAAPPSWKGQPYQSSSVGSMMSVSAACPKEKQAAALAFINWLDSDKDAIQSWQDTNNGNFFMAASVYQDDENQRNKKETDGYYANDDVNAVYFDSMDKVNTDWEYLPFMSQVEVVFNDVIVPQMNENGDLVGAMAKAQQELKTYAKDNGFKVTTDAD,glycan array binding signal (z-score),GlcNAc(b1-3)Man,-0.145
same,glycan array binding signal (z-score),[1],-0.13
same,glycan array binding signal (z-score),[2],-0.073
same,glycan array binding signal (z-score),[3],-0.055
same,glycan array binding signal (z-score),[4],-0.122
same,glycan array binding signal (z-score),GlcNAc(b1-4)GlcNAc,-0.063
same,glycan array binding signal (z-score),[5],0.013
same,glycan array binding signal (z-score),[6],-0.087
same,glycan array binding signal (z-score),[7],-0.132
same,glycan array binding signal (z-score),[8],-0.196
same,glycan array binding signal (z-score),[9],-0.018
same,glycan array binding signal (z-score),GlcNAc(b1-6)GalNAc,-0.108
same,glycan array binding signal (z-score),[10],-0.084
same,glycan array binding signal (z-score),Kdn(a2-3)Gal(b1-3)GalNAc,-0.035
same,glycan array binding signal (z-score),Kdn(a2-3)Gal(b1-3)GlcNAc,-0.055
same,glycan array binding signal (z-score),Kdn(a2-3)Gal(b1-4)Glc,-0.155
same,glycan array binding signal (z-score),Kdn(a2-3)Gal(b1-4)GlcNAc,-0.061
same,glycan array binding signal (z-score),[11],-0.11
same,glycan array binding signal (z-score),Kdn(a2-6)Gal(b1-4)GlcNAc,-0.141
same,glycan array binding signal (z-score),[12],-0.128
same,glycan array binding signal (z-score),[13],-0.126
same,glycan array binding signal (z-score),Man(a1-2)Man(a1-3)Man,-0.171
same,glycan array binding signal (z-score),[14],-0.167
same,glycan array binding signal (z-score),[15],-0.108
same,glycan array binding signal (z-score),[16],-0.146
same,glycan array binding signal (z-score),[17],-0.161
same,glycan array binding signal (z-score),[18],-0.138
same,glycan array binding signal (z-score),[19],-0.04
same,glycan array binding signal (z-score),Man(a1-3)[Man(a1-6)]Man,-0.152
same,glycan array binding signal (z-score),[20],-0.011
same,glycan array binding signal (z-score),[21],-0.148
same,glycan array binding signal (z-score),[22],-0.034
same,glycan array binding signal (z-score),[23],-0.18
same,glycan array binding signal (z-score),[24],-0.128
same,glycan array binding signal (z-score),Man(a1-6)Man,-0.139
same,glycan array binding signal (z-score),Man(b1-4)GlcNAc,-0.108
same,glycan array binding signal (z-score),MurNAc(b1-4)GlcNAc,-0.09
same,glycan array binding signal (z-score),Neu5Ac(a2-3)Gal,-0.115
